Data taken from PubChem BioAssay AID445 (National Center for Advancing Translational Sciences (NCATS), 2006).
In all, about 110,000 compounds went through this assay and about 40 (0.04%) were called active. Inconclusive results, whose numbers are uncertain, are shown with a selection of clear calls. Calls come from the whole dose curve; as a rule, active = well fitted curve in the direction sought with a large enough effect in the signal ratio (not every such curve was filed as active); inconclusive = small, poorly fitted or top-dose-only effect, or a change in a side signal; inactive = flat fitted curve, though single readings scatter; the % refers to the signal ratio. Potencies of inconclusive entries are doubtful fits and often do not repeat.
Potency is the fitted concentration of half-maximal effect.

Test: IkB Signaling;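 for IkBa stabilization activation: 0% = basal untreated cells and 100% = reference inhibitor full response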
Conditions: ABC-DLBCL IkBa-CBG/CBR dual luciferase ratio (green luciferase fused to IkBa over red control in OCI-Ly3 lymphoma cells), 4 h; IkBa stabilization activation: at 57.1 µM (top of the series), scaled: untreated 0%, proteasome inhibitor 100% unless noted
Procedure, shortened: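 Luminescence ratio of IκBα-fused green versus native red beetle luciferase in OCI-Ly3 cells, 4 h post-doxycycline with compound; red signal alone, scaled from basal (0%) to zero light (-100%), flagged nonspecific or cytotoxic effects.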
With `CCn1c(=O)c2c(n3cnnc13)-c1ccccc1CC21CCCCC1` the IkBa stabilization activation was “inactive”. For `O=C1CC(C(=O)N(CC2CCCO2)C(C(=O)NC2CCCCC2)c2ccncc2)CS1` (stereo not given), the IkBa stabilization activation was inconclusive: 5.98% [signal inhibitor]. In the case of `Cc1cccc(CNC(=O)c2ccc(NC(=O)N3CC(C)Sc4ccccc43)cc2)c1` (stereo not given), the IkBa stabilization activation is reported as inconclusive: 1.36% [signal inhibitor]. In the case of `Nc1c(C(=O)c2ccc(F)cc2)sc(Nc2ccccc2F)c1S(=O)(=O)c1ccc(Br)cc1`, the IkBa stabilization activation is reported as “inactive”. In the case of `CCOc1ccc(S(=O)(=O)N(CC(=O)Nc2ccc3c(c2)OCO3)c2ccccc2)cc1`, the IkBa stabilization activation is reported as “inactive”. For `Cc1ccc(NC(=O)Cn2c(=O)n(-c3ccccc3)c(=O)c3ccc(C(=O)NCc4ccc5c(c4)OCO5)cc32)c(C)c1`, the IkBa stabilization activation was “inactive”. For `CCCNC(=O)c1cc(S(=O)(=O)N2CCc3ccccc32)ccc1F`, the IkBa stabilization activation was inconclusive: 7.45% [signal inhibitor]. In the case of `O=C(Nc1c(-c2ccc(F)cc2)nc2ccccn12)c1ccccc1F`, the IkBa stabilization activation is reported as “inactive”. In the case of `O=[N+]([O-])c1ccc(S(=O)(=O)Cc2ccccc2)c([N+](=O)[O-])c1`, the IkBa stabilization activation is reported as inconclusive: 4.81% [signal inhibitor] [at 11.4 µM, scaled: untreated 0%, proteasome inhibitor 100%]. For `CCOC(=O)c1cccc(NC(=O)c2ccc3nc(Cc4ccccc4)oc3c2)c1`, the IkBa stabilization activation was inconclusive: 4.97% [signal inhibitor]. With `O=C(c1cc2nc(-c3ccc(F)cc3)cc(C(F)(F)F)n2n1)N1CCCC1` the IkBa stabilization activation was “inactive”. In the case of `COc1ccc(CN(Cc2ccco2)c2cnc(S(C)(=O)=O)nc2C(=O)Nc2ccc(F)cc2)cc1`, the IkBa stabilization activation is reported as inconclusive: -0.494% [signal inhibitor]. In the case of `Cc1noc(C)c1COc1ccc(C(=O)OCC(=O)N2CC3(C)CC2CC(C)(C)C3)cc1` (stereo not given), the IkBa stabilization activation is reported as inconclusive: 2.56% [signal inhibitor]. In the case of `COc1ccc(OC)c(-c2csc(-c3c(N)c(C(=O)c4ccccc4)n4ccccc34)n2)c1`, the IkBa stabilization activation is reported as inconclusive: 5.66% [signal inhibitor]. With `O=C(c1ccc(Cl)cc1)C1C2C(=O)N(c3ccccc3)C(=O)C2C2CCCN21` (stereo not given) the IkBa stabilization activation was inconclusive: 16.3% [signal inhibitor]. With `COc1ccc(S(=O)(=O)N(CC(=O)Nc2cccc(C(F)(F)F)c2)c2ccc(C)cc2)cc1` the IkBa stabilization activation was inconclusive: 8.62% [signal inhibitor]. For `COc1ccc(C)cc1-n1nnnc1SCc1cc(=O)n2cc(C)ccc2n1`, the IkBa stabilization activation was inconclusive: 6.51% [signal inhibitor]. For `CCOC(=O)C1CCN(C(c2cc(OC)c(OC)c(OC)c2)c2sc3nc(C)nn3c2O)CC1` (stereo not given), the IkBa stabilization activation was inconclusive: 8.76% [signal inhibitor]. For `COc1ccc(-n2c(=O)c3c(c4cc(OC)ccc4n3C)n(Cc3cc(C)ccc3C)c2=O)cc1`, the IkBa stabilization activation was “inactive”. In the case of `CCC(CC)COC(=O)C(C#N)c1nc2ccccc2nc1N1CCN(CC)CC1` (stereo not given), the IkBa stabilization activation is reported as inconclusive: -1.59% [signal inhibitor]. In the case of `Cc1ccc(CNC(=O)C2CCN(S(=O)(=O)c3cc(-c4noc(C)n4)ccc3C)CC2)cc1`, the IkBa stabilization activation is reported as “inactive”. With `Cc1c(Cl)cccc1-n1nc(C)c2c(C(=O)NCc3ccccc3)cc(C3CC3)nc21` the IkBa stabilization activation was inconclusive: -3.03% [signal inhibitor]. In the case of `Cc1nc2c(-c3ccccc3)c(C)nn2c(C)c1CCC(=O)NCc1ccc(F)cc1`, the IkBa stabilization activation is reported as inconclusive: -0.763% [signal inhibitor]. With `Cn1c(=O)oc2cc(S(=O)(=O)Nc3ccccc3O)ccc21` the Potency was inconclusive: 20 µM [signal inhibitor, partial curve]. For `CCCc1nc(N)c(C#N)c(-c2ccco2)c1CC`, the IkBa stabilization activation was “inactive”. In the case of `Cc1ccc(-c2cc(NC(=O)COc3ccc(Cl)cc3C)on2)cc1`, the IkBa stabilization activation is reported as inconclusive: -0.386% [signal inhibitor]. In the case of `CCOc1ccc(CCNC(=O)c2cc3c(s2)-c2ccccc2OC3)cc1OCC`, the IkBa stabilization activation is reported as “inactive”. In the case of `O=C(NCc1ccc(Cl)cc1)C1CCN(S(=O)(=O)Cc2ccccc2)CC1`, the IkBa stabilization activation is reported as inconclusive: 8.93% [signal inhibitor]. With `COc1ccc(-c2cc(C(F)(F)F)nc(SCC(=O)N3CCC(C)CC3)n2)cc1` the IkBa stabilization activation was inconclusive: -0.697% [signal inhibitor]. For `COc1cccc(/C=C/c2onc(C)c2S(=O)(=O)N2CCC(C(=O)N3CCC(C)CC3)CC2)c1`, the IkBa stabilization activation was inconclusive: -0.722% [signal inhibitor]. In the case of `Cc1cc2ccccc2n1-c1ccc(C(=O)N2CCC(C(=O)NCc3ccccc3Cl)CC2)s1`, the IkBa stabilization activation is reported as inconclusive: 1.86% [signal inhibitor]. In the case of `CC(CNC(=O)Cc1ccc(NC(=O)N2CCSc3ncccc32)cc1)c1ccccc1` (stereo not given), the IkBa stabilization activation is reported as inconclusive: -0.205% [signal inhibitor]. For `COc1ccc(-c2cn3c(n2)sc2cc(C(=O)Nc4cccc(OC)c4)ccc23)cc1`, the IkBa stabilization activation was inconclusive: 0.144% [signal inhibitor]. In the case of `Cc1ccccc1NCc1cccn1-c1nnc(N2CCC(C)CC2)s1`, the IkBa stabilization activation is reported as inconclusive: -0.431% [signal inhibitor]. With `CCOC(=O)C1=C(CN2CCN(c3ccccc3F)CC2)NC(=O)NC1c1ccc(Cl)cc1` (stereo not given) the IkBa stabilization activation was inconclusive: 4.81% [signal inhibitor]. In the case of `COc1ccc(N2CCN(C(CNC(=O)C(=O)NCCc3ccccc3)c3cccnc3)CC2)cc1` (stereo not given), the IkBa stabilization activation is reported as inconclusive: 0.735% [signal inhibitor]. For `O=S(=O)(c1cccc(-c2csc(-c3cccnc3)n2)c1)N1CCCCC1`, the IkBa stabilization activation was inconclusive: -0.312% [signal inhibitor]. In the case of `Cc1ccc(CN2CCC(CNC(=O)Nc3cccc(Cl)c3C)C2)cc1` (stereo not given), the IkBa stabilization activation is reported as inconclusive: 0.98% [signal inhibitor]. For `Cc1ccc(CCNC(=O)NCc2noc3ccccc23)cc1`, the IkBa stabilization activation was “inactive”. For `COc1ccc(C)cc1NC(=O)CSc1nc2ccccc2nc1N1CCOCC1`, the IkBa stabilization activation was inconclusive: 6.05% [signal inhibitor]. In the case of `Cc1c(CNC2CCCCCC2)c(C(=O)O)c(C)n1Cc1ccc(F)cc1Cl`, the IkBa stabilization activation is reported as inconclusive: 2.78% [signal inhibitor]. With `CC(C)NC(=O)c1cnc(N2CCN(c3ccccn3)CC2)c2ccccc12` the IkBa stabilization activation was inconclusive: -0.0118% [signal inhibitor]. For `CC(=O)N1CCc2cc(S(=O)(=O)NC(Cc3ccccc3)C(=O)Nc3cccc(C)c3)ccc21` (stereo not given), the IkBa stabilization activation was “inactive”. For `CCc1ccc(-n2c(=O)c3c4c(sc3n(Cc3ccc(C)cc3)c2=O)CCC4)cc1`, the IkBa stabilization activation was inconclusive: 4.21% [signal inhibitor]. In the case of `COc1ccc(CCNc2nccn(-c3ccc(C)c(C)c3)c2=O)cc1OC`, the IkBa stabilization activation is reported as inconclusive: 6.47% [signal inhibitor]. For `Cc1cc(C)cc(N2CC(c3nc(-c4cccc(Cl)c4)no3)CC2=O)c1` (stereo not given), the IkBa stabilization activation was inconclusive: 1.16% [signal inhibitor]. With `O=C(CN(C(=O)CSc1nnc(COc2ccccc2)o1)c1ccc(F)cc1)NC1CCCCC1` the Potency was inconclusive: 25.1 µM [signal inhibitor, partial curve]. In the case of `COc1ccc(-c2nnc(CSc3ncnc4sc5c(c34)CCC5)o2)cc1OC`, the IkBa stabilization activation is reported as “inactive”. In the case of `O=C1C(Nc2ccccc2)=CC(c2ccc(Br)cc2)N1c1ccccc1` (stereo not given), the IkBa stabilization activation is reported as inconclusive: 12.3% [signal inhibitor]. For `Oc1oc(-c2ccco2)nc1C=Nc1ccccc1`, the IkBa stabilization activation was inconclusive: 16.9% [signal inhibitor]. For `COc1ccc(CCNC(=O)C(=O)Nc2ccc(C)cc2)cc1OC`, the IkBa stabilization activation was “inactive”. With `COc1ccc(N2CCN(S(=O)(=O)c3c(C)[nH]c(=O)[nH]c3=O)CC2)cc1` the IkBa stabilization activation was “inactive”. In the case of `CCn1nc(C(=O)OCc2c(C)noc2C)c2ccccc2c1=O`, the IkBa stabilization activation is reported as “inactive”. For `O=S(=O)(NC1CC1)c1ccc(S(=O)(=O)N2CCCc3ccccc32)cc1`, the IkBa stabilization activation was inconclusive: 5.81% [signal inhibitor]. With `COc1cc(-c2cccs2)cc(=O)c2c(C)oc(C)c12` the IkBa stabilization activation was inconclusive: 2.71% [signal inhibitor]. In the case of `CN(C)c1ccc(-c2cc(NCc3cccnc3)ncn2)cc1`, the IkBa stabilization activation is reported as inactive: -0.195% [at 11.4 µM, scaled: untreated 0%, proteasome inhibitor 100%]. For `CC(C)c1ccc(NC(=O)c2ccc(F)c(S(=O)(=O)N3CCCCCC3)c2)cc1`, the IkBa stabilization activation was “inactive”. With `CC(C)=CCCC(C)CCO` (stereo not given) the IkBa stabilization activation was “inactive”. In the case of `CC(C)(C)c1ccc(C(=O)Nc2cc(-c3nc4ccccc4o3)ccc2Cl)cc1`, the Potency is reported as inconclusive: 15.8 µM [signal inhibitor]. For `CCc1ccccc1NC(=O)c1ccc2c(c1)CCN2S(C)(=O)=O`, the IkBa stabilization activation was “inactive”. With `CCCCn1c(=O)c2oc3ccccc3c2n(CC(=O)Nc2cccc(Cl)c2C)c1=O` the IkBa stabilization activation was “inactive”. With `COc1ccc(CC(=O)Nc2cc(Cl)ccc2O)cc1` the IkBa stabilization activation was inconclusive: 3.58% [signal inhibitor]. For `C=C(C)CC1Nc2ccccc2NC1CC(=C)C` (stereo not given), the IkBa stabilization activation was “inactive”. For `COc1ccc(Cc2nc3ccc(C(=O)NCc4ccc(OC)cc4OC)cc3o2)cc1`, the IkBa stabilization activation was inconclusive: -0.862% [signal inhibitor]. In the case of `CCOC(=O)Cn1c(=O)oc2cc(S(=O)(=O)N3CCCC(C(=O)OCC)C3)ccc21` (stereo not given), the IkBa stabilization activation is reported as inconclusive: 16.3% [signal inhibitor]. With `Cc1ccc(Cn2c(SCc3ccc(C(=O)N4CCCCCC4)cc3)nc3ccncc32)cc1` the IkBa stabilization activation was inconclusive: 0.804% [signal inhibitor]. For `CCn1cnc2cc(NCc3nc4ccccc4n3C)ccc21`, the IkBa stabilization activation was “inactive”. For `C=CCSc1nc2ccccc2n1Cc1nnc(-c2cccs2)o1`, the Potency was inconclusive: 15.8 µM [signal inhibitor, partial curve]. With `COc1ccc(-c2noc(CSc3nnc(C)n3-c3ccc(OC)cc3)n2)cc1` the IkBa stabilization activation was inconclusive: -0.0504% [signal inhibitor]. For `Cn1nnnc1SCCCNCc1ccccc1OCc1ccccc1Cl`, the IkBa stabilization activation was “inactive”.
